Measurements taken from the RNAGym collection of RNA variant scans (doi:10.1093/nar/gkz1192).
Read counts are not given, so values of variants with three or more changes are uncertain.

B1: CPEB3 Ribozyme (parent)
chain: UAACAGGGGGCCACAGCAGAAGCGUUCACGUCGCAGCCCCUGUCAGAUUCUGGUGAAUCUGCGAAUUCUGCUGUAUAUCUC

Variants of: B1
Assay: self-cleavage, relative activity (ratio to wild type); higher = more cleavage; in vitro, sequencing
How it was run: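 Relative activity compares each variant's cleaved/total read fraction with that of the unmutated ribozyme. To get these fractions, barcoded CPEB3 ribozyme libraries from rounds of error-prone PCR were transcribed with T7 RNA polymerase for 5 hours at 37°C and then given 15 min of DNase I treatment before EDTA was added. The RNAs were reverse transcribed with template switching and sequenced on Illumina, and DNA sequencing linked barcodes to variants. A minimum of 5 reads applied, and three batches were averaged.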
U25C A35G U60C gave a self-cleavage of 0.06.
U25C A35G U66C showed a self-cleavage of 0.14.
U25C A35G U72C gave a self-cleavage of 0.35.
In the case of U25C A35U A45G U54A C79A, the self-cleavage is reported as 0.24.
With U25C A35U A47G A57C U76A the self-cleavage was 0.16.
Variant U25C A35U A77U has a self-cleavage of 0.42.
Work on U25C A35U U41A U78C yielded a self-cleavage of 0.16.
Work on U25C A35U U41C A57G U69A yielded a self-cleavage of 0.08.
U25C A35U U43C U48A A56G A65G A77U gave a self-cleavage of 0.04.
Variant U25C A35U U49A has a self-cleavage of 0.24.
Variant U25C A35U U51C C59A U69C A77G has a self-cleavage of 0.04.
For U25C A35U U60A, the self-cleavage was 0.14.
With U25C A35U U66C the self-cleavage was 0.11.
For U25C A35U U69A, the self-cleavage was 0.15.
U25C A45G A47G A65U showed a self-cleavage of 0.09.
With U25C A45G A64G the self-cleavage was 0.
U25C A45G A65G gave a self-cleavage of 0.14.
U25C A45G A77G gave a self-cleavage of 0.43.
Work on U25C A45G G70C U76A yielded a self-cleavage of 0.2.
With U25C A45G U49C U69C the self-cleavage was 0.09.
With U25C A45G U60C U78C the self-cleavage was 0.35.
For U25C A45G U69A U80C, the self-cleavage was 0.18.
For U25C A45G U74C, the self-cleavage was 0.21.
With U25C A45U A47G U72C U80C the self-cleavage was 0.08.
U25C A45U A56G showed a self-cleavage of 0.07.
Work on U25C A45U G52C U60A yielded a self-cleavage of 0.22.
Work on U25C A45U U54A U69A yielded a self-cleavage of 0.11.
Variant U25C A45U U78C has a self-cleavage of 0.16.
With U25C A47C U74C U78C the self-cleavage was 0.15.
U25C A47G A65G showed a self-cleavage of 0.24.
U25C A47G U49C U60C A64G U80A showed a self-cleavage of 0.07.
Variant U25C A47G U51A U60C has a self-cleavage of 0.12.
U25C A47G U54C C62U A64U showed a self-cleavage of 0.16.
For U25C A47G U69A, the self-cleavage was 0.17.
Variant U25C A47G U80A has a self-cleavage of 0.1.
In the case of U25C A56C C59A, the self-cleavage is reported as 0.13.
Work on U25C A56G A57G yielded a self-cleavage of 0.25.
Variant U25C A56G A77G has a self-cleavage of 0.19.
For U25C A56G G70A, the self-cleavage was 0.42.
U25C A56G U58A C68A U76C gave a self-cleavage of 0.11.
In the case of U25C A56G U66C C71A U76C U80C, the self-cleavage is reported as 0.12.
Variant U25C A56U U80C C81U has a self-cleavage of 0.06.
Variant U25C A57G U67C has a self-cleavage of 0.38.
With U25C A57G U72C C79A the self-cleavage was 0.07.
For U25C A64G U76A, the self-cleavage was 0.13.
For U25C A65G U74C U80C, the self-cleavage was 0.31.
With U25C A77G C81A the self-cleavage was 0.18.
U25C C27G C37G A45U A64U A77G gave a self-cleavage of 0.06.
With U25C C27U U43C the self-cleavage was 0.16.
Variant U25C C27U U49A A64G has a self-cleavage of 0.2.
Work on U25C C27U U51A A57U U80A yielded a self-cleavage of 0.04.
With U25C C27U U58C U66C the self-cleavage was 0.27.
U25C C29U A35U A47U A65G U74C showed a self-cleavage of 0.07.
U25C C29U A35U U51C A57G gave a self-cleavage of 0.1.
U25C C32A A35U U49C U80A showed a self-cleavage of 0.14.
With U25C C32A A64G U66C U67C C79U the self-cleavage was 0.06.
U25C C32A C38U U66A U78A gave a self-cleavage of 0.12.
Variant U25C C32U C38A has a self-cleavage of 0.39.
Variant U25C C34U A47G U67C has a self-cleavage of 0.1.
For U25C C37U A45U A47G, the self-cleavage was 0.12.
For U25C C38G U54C A56U U69C, the self-cleavage was 0.08.
U25C C38U A56G gave a self-cleavage of 0.11.
In the case of U25C C38U A77U, the self-cleavage is reported as 0.13.
Work on U25C C38U U49C U60C yielded a self-cleavage of 0.07.
For U25C C38U U74A, the self-cleavage was 0.61.
Variant U25C C39G U58C C79U has a self-cleavage of 0.05.
U25C C39U U72C U80C gave a self-cleavage of 0.1.
Work on U25C C40U A45U U51C A65G yielded a self-cleavage of 0.09.
In the case of U25C C40U A47G U69C, the self-cleavage is reported as 0.13.
In the case of U25C C40U C62U U67C C68U U80C, the self-cleavage is reported as 0.06.
With U25C C40U G63U U69C U78A the self-cleavage was 0.07.
Work on U25C C50G C71U yielded a self-cleavage of 0.07.
U25C C59U U80C showed a self-cleavage of 0.37.
U25C G30A C38U U72C A77U gave a self-cleavage of 0.35.
Variant U25C G33A A35G U54C has a self-cleavage of 0.06.
Work on U25C G33A U60A U67C U80A yielded a self-cleavage of 0.08.
Work on U25C G33A U66G yielded a self-cleavage of 0.18.
U25C G33C A35G U72C gave a self-cleavage of 0.2.
In the case of U25C G33U A45G A47G A64U, the self-cleavage is reported as 0.13.
U25C G33U U49G G52C U78C showed a self-cleavage of 0.17.
Variant U25C G33U U76C has a self-cleavage of 0.08.
For U25C G36A U43A A64G, the self-cleavage was 0.13.
Variant U25C G36U A45G U48C has a self-cleavage of 0.15.
Work on U25C G36U U48C yielded a self-cleavage of 0.11.
